According to US20100075953A1, “SUBSTITUTED PIPERAZINES, (1,4) DIAZEPINES, AND 2,5-DIAZABICYCLO (2.2.1) HEPTANES AS HISTAMINE H1 AND/OR H3 ANTAGONISTS OR HISTAMINE H3 REVERSE ANTAGONISTS” (Glaxo Group Limited, priority 2002, published 2010):
Some entries share one result that the patent states for a list of compounds.

Molecular target: histamine H3 receptor (Homo sapiens, UniProt Q9Y5N1)
Experiment: Histamine H3 functional antagonist assay
Details: membranes of CHO K1 cells expressing human H3, [35S]GTPgammaS SPA, histamine 0.3 μM

Sequence of histamine H3 receptor (Q9Y5N1 whole entry): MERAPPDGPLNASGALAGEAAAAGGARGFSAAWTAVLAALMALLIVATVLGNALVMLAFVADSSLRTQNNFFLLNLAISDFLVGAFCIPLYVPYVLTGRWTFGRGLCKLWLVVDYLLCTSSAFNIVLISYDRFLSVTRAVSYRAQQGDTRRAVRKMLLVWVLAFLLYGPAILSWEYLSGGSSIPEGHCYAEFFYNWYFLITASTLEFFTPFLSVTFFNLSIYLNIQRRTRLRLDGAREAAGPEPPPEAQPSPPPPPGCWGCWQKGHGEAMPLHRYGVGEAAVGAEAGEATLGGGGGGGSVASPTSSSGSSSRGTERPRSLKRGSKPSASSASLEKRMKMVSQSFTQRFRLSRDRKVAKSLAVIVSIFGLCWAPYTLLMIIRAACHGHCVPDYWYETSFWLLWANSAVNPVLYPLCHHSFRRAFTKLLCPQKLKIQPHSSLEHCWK

Molecule | antagonism in the histamine H3 functional antagonist assay (pKb) | further results
O=C(Nc1ccc2ncccc2c1)N1CCN(c2ccc(OCCCN3CCCCC3)cc2)CC1 [Example E281, 4-(4-{[3-(1-Piperidinyl)propyl]oxy}phenyl)-N-6-quinolinyl-1-piperazinecarboxamide] | > 6.5 | –
CC(=O)c1ccc(CC(=O)N2CCN(c3ccc(OCCCN4CCCCC4)cc3)CC2)cc1 [Example E411, 1-(4-{2-Oxo-2-[4-(4-{[3-(1-piperidinyl)propyl]oxy}phenyl)-1-piperazinyl]ethyl}phenyl)ethanone] | > 8.4 | antagonism in the histamine H3 functional antagonist assay (pKb) (listed as Example 411): > 6.5 pKb
CC(=O)c1ccc(C(=O)N2CCN(c3ccc(OCCCN4CCCCC4)cc3)CC2)cc1 [Example E386, 1-(4-{[4-(4-{[3-(1-Piperidinyl)propyl]oxy}phenyl)-1-piperazinyl]carbonyl}phenyl)ethanone] | > 8.4 | antagonism in the histamine H3 functional antagonist assay (pKb) (listed as Example 386): > 6.5 pKb
N#CCc1ccc(C(=O)N2CCN(c3ccc(OCCCN4CCCCC4)cc3)CC2)cc1 [Example E420, (4-{[4-(4-{[3-(1-Piperidinyl)propyl]oxy}phenyl)-1-piperazinyl]carbonyl}phenyl)acetonitrile] | > 8.4 | antagonism in the histamine H3 functional antagonist assay (pKb) (listed as Example 420): > 6.5 pKb
O=C(c1ccccc1)N1CCN(c2ccc(OCCN3CCCCC3)cc2)CC1 [Example E304, 1-(Phenylcarbonyl)-4-(4-{[2-(1-piperidinyl)ethyl]oxy}phenyl)piperazine] | > 6.5 | –
O=C(c1ccc(F)cc1)N1CCN(c2ccc(OC3CCN(C4CCCC4)CC3)cc2)CC1 [Example E258, 1-{4-[(1-Cyclopentyl-4-piperidinyl)oxy]phenyl}-4-[(4-fluorophenyl)carbonyl]piperazine] | > 8.4 | antagonism in the histamine H3 functional antagonist assay (pKb) (listed as Example E258): > 6.5 pKb
O=C(c1ccc2ccccc2c1)N1CCN(Cc2ccc(OCCCN3CCCCC3)cc2)CC1 [Example E3, 1-Naphthalen-2-yl-1-{4-[4-(3-piperidin-1-yl-propoxy)-benzyl]-piperazin-1-yl}-methanone] | > 8.4 | antagonism in the histamine H3 functional antagonist assay (pKb) (listed as Example E3): > 6.5 pKb
O=C(C1CCC1)N1CCN(C(=O)N2CCN(c3ccc(OCCCN4CCCCC4)cc3)CC2)CC1 [Example E287, 1-(Cyclobutylcarbonyl)-4-{[4-(4-{[3-(1-piperidinyl)propyl]oxy}phenyl)-1-piperazinyl]carbonyl}piperazine] | > 6.5 | –
O=C(c1cccnc1)N1CCN(c2ccc(OCCCN3CCCCC3)cc2)CC1 [Example E342, 1-(4-{[3-(1-Piperidinyl)propyl]oxy}phenyl)-4-(3-pyridinylcarbonyl)piperazine] | > 8.4 | antagonism in the histamine H3 functional antagonist assay (pKb) (listed as Example 342): > 6.5 pKb
O=C(c1cc2ccccc2o1)N1CCN(Cc2ccc(OCCCN3CCCCC3)cc2)CC1 [Example E11, 1-Benzofuran-2-yl-1-{4-[4-(3-piperidin-1-yl-propoxy)-benzyl]-piperazin-1-yl}-methanone] | > 6.5 | –
1-(4-Fluoro-phenyl)-1-{4-[4-(3-piperidin-yl-propoxy)-phenyl]-[1,4]-diazepan-1-yl}-methanone [Example E452] | > 8.4 | antagonism in the histamine H3 functional antagonist assay (pKb) (listed as Example 452): > 6.5 pKb
O=C(c1cc(Cl)cc(Cl)c1)N1CCN(Cc2ccc(OCCCN3CCCCC3)cc2)CC1 [Example E4, 1-(3,5-Dichloro-phenyl)-1-{4-[4-(3-piperidin-1-yl-propoxy)-benzyl]-piperazin-1-yl}-methanone] | > 6.5 | –
C[C@@H]1CN(c2ccc(OCCCN3CCCCC3)cc2)[C@H](C)CN1C(=O)c1ccc(C(=O)N2CCCC2)cc1 [Example E457, 1-{(2R,5R)-2,5-Dimethyl-4-[4-(3-piperidin-1-yl-propoxy)-phenyl]-piperazin-1-yl}-1-[4-(1-pyrrolidin-1-yl-methanoyl)-phenyl]-methanone] | > 8.4 | antagonism in the histamine H3 functional antagonist assay (pKb) (listed as Example 457): > 6.5 pKb
O=S(=O)(c1ccc(Cl)c(Cl)c1)N1CCN(c2cccc(OCCCN3CCCCC3)c2)CC1 [Example E45, 1-(3,4-Dichlorobenzenesulphonyl)-4-[3-(3-piperidin-1-yl-propoxy)-phenyl]-piperazine] | > 6.5 | –
O=C(c1ccc(C(=O)N2CC[C@H](F)C2)cc1)N1CCN(c2ccc(OCCCN3CCCCC3)cc2)CC1 [Example E443, 1-[(4-{[(3S)-3-Fluoro-1-pyrrolidinyl]carbonyl}phenyl)carbonyl]-4-(4-{[3-(1-piperidinyl)propyl]oxy}phenyl)piperazine] | > 8.4 | antagonism in the histamine H3 functional antagonist assay (pKb) (listed as Example 443): > 6.5 pKb
O=C(c1ccc(Cl)cc1)N1CCN(C(=O)N2CCN(c3ccc(OCCCN4CCCCC4)cc3)CC2)CC1 [Example E291, 1-[(4-Chlorophenyl)carbonyl]-4-{[4-(4-{[3-(1-piperidinyl)propyl]oxy}phenyl)-1-piperazinyl]carbonyl}piperazine] | > 8.4 | antagonism in the histamine H3 functional antagonist assay (pKb) (listed as Example 291): > 6.5 pKb
O=C(c1ccc2cccnc2n1)N1CCN(c2ccc(OCCCN3CCCCC3)cc2)CC1 [Example E398, 2-{[4-(4-{[3-(1-Piperidinyl)propyl]oxy}phenyl)-1-piperazinyl]carbonyl}-1,8-naphthyridine] | > 8.4 | antagonism in the histamine H3 functional antagonist assay (pKb) (listed as Example 398): > 6.5 pKb
CN(C)c1cccc(C(=O)N2CCN(c3ccc(OCCCN4CCCCC4)cc3)CC2)c1 [Example E372, N,N-Dimethyl-3-{[4-(4-{[3-(1-piperidinyl)propyl]oxy}phenyl)-1-piperazinyl]carbonyl}aniline] | > 6.5 | –
CC(C)N1CCC(Oc2ccc(N3CCN(C(=O)N4CCOCC4)CC3)c(F)c2)CC1 [Example E315, 4-{[4-(2-Fluoro-4-{[1-(1-methylethyl)-4-piperidinyl]oxy}phenyl)-1-piperazinyl]carbonyl}morpholine] | > 8.4 | antagonism in the histamine H3 functional antagonist assay (pKb) (listed as Example 315): > 6.5 pKb
O=C(c1ccc(-n2cccc2)cc1)N1CCN(c2ccc(OCCCN3CCCCC3)cc2)CC1 [Example E380, 1-(4-{[3-(1-Piperidinyl)propyl]oxy}phenyl)-4-{[4-(1H-pyrrol-1-yl)phenyl]carbonyl}piperazine] | > 8.4 | antagonism in the histamine H3 functional antagonist assay (pKb) (listed as Example 380): > 6.5 pKb
O=C(C1CCCCC1)N1CCN(c2ccc(OCCCN3CCCCC3)cc2)CC1 [Example E331, 1-(Cyclohexylcarbonyl)-4-(4-{[3-(1-piperidinyl)propyl]oxy}phenyl)piperazine] | > 8.4 | antagonism in the histamine H3 functional antagonist assay (pKb) (listed as Example 331): > 6.5 pKb
C[C@H]1CN(c2ccc(OCCCN3CCCCC3)cc2)CCN1C(=O)C1CCOCC1 [Example E322, (2S)-2-Methyl-4-(4-{[3-(1-piperidinyl)propyl]oxy}phenyl)-1-(tetrahydro-2H-pyran-4-ylcarbonyl)piperazine] | > 8.4 | antagonism in the histamine H3 functional antagonist assay (pKb) (listed as Example 322): > 6.5 pKb
O=C(c1ccc(F)cc1)N1CCN(c2ccc(OC3CCN(C4CC4)CC3)cc2)CC1 [Example E260, 1-{4-[(1-Cyclopropyl-4-piperidinyl)oxy]phenyl}-4-[(4-fluorophenyl)carbonyl]piperazine] | > 8.4 | antagonism in the histamine H3 functional antagonist assay (pKb) (listed as Example E260): > 6.5 pKb
O=C(C1CC1)N1CCN(c2ccc(OCCCN3CCCCC3)cc2)CC1 [Example E35, 1-Cyclopropyl-1-{4-[4-(3-piperidin-1-yl-propoxy)-phenyl]-piperazin-1-yl}-methanone] | > 8.4 | antagonism in the histamine H3 functional antagonist assay (pKb) (listed as Example E35): > 6.5 pKb
O=C(c1c(Cl)cccc1Cl)N1CCN(c2ccc(OCCCN3CCCCC3)cc2)CC1 [Example E340, 1-[(2,6-Dichlorophenyl)carbonyl]-4-(4-{[3-(1-piperidinyl)propyl]oxy}phenyl)piperazine] | > 6.5 | –
